In the RNAGym collection of RNA variant scans (doi:10.7554/elife.90254):
Read counts are not given, so values of variants with three or more changes are uncertain.

B1: LINE1-mini (parent)
chain: GGCAGAGCUCAACACAGCGUGGCAAAGUGGCUGUGGCUAGACUGCC

Variants of: B1
Assay: self-cleavage, relative activity (ratio to wild type); higher = more cleavage; in vitro, sequencing; the parent is a self-cleaving ribozyme

Row | Variant | self-cleavage
1 | UGCAGAGCUCAACACAGCGUGGUAAAGUGCCUGUGGCUAUACUGCC | 0.02
2 | GGCAGAGAUCAACACAGCGUGGCAAAGUGGGUGUGGCUAGACUGCU | 0.11
3 | GGCAGAUCUCAACACAGCGUGGCUAAGUGGUUGUGGCUAGACUGCC | 0.13
4 | AGCAGACCUCAACACAGCGUGGCAAAGUGGCUGUGGCUAGUCUGCC | 0.63
5 | GGCAGAGCUCAACACAGCGUGGCAUAGUUGCUGUGGCUAGACAGAC | 0.03
6 | GGCAGAGCCCCACACAGAGUGGCAAAGUGGCUGUGGCUAGACUUCC | 0.02
7 | GACAGAACCCAACACAGCGUGGCAAAGAGGAUGUGCCAAGACUGCC | 0
8 | GUCAGAGCCCAACACCGCGUGGCAAAGUGGAUGUGGCUACACUGCC | 0.01
9 | GGCAGACCUCCACACAGCGUGGCAAAGUGGAUGUUGCUAGACUGCC | 0.02
10 | GGCAGAGGUCAACACAGCGUGGCAAACUGGCUGUGGCUAGACUACC | 0.02
11 | GGCAGAGUUCAACACAGCGUGGCAAAGUGGCUGUGGAUACACUGCC | 0.08
12 | GGCAGAGCUCAACAGAGCGUGGCAAAGUGACUGCUGUUGGACUGUC | 0
13 | GGCAGAGAUCAACACCGCCUGGCAAACUGGCUGUGGCUAGACUGCC | 0.05
14 | GGCAGUGCUCAACAUAGCGAGGCAUAGUGGCUGUGGCUAGACUGCC | 0.05
15 | GACAGAGCUCAACACAGGGUGGCAAAGUAGCUGUGGCUAGCUUGCC | 0.13
16 | GACAGAGCUCAACACAGAGUGGUAAAGUGGCUGUGGCUAGACUGCC | 0.24
17 | UGCAGAGCUCAACACAUCGUGGCAAAGUUCCUGUGGCUAUACUGCA | 0.03
18 | GGCAGAGCUCAACACAGCGUUGGAAAGUGGCUGUGGCUAGACUACC | 0.23
19 | GGCAGAGCUUAAGACAGCGUGGCAAAGUGGCUGUGGCUCGACUGCC | 0.08
20 | GACAGGGCUCAACACAGCGUGCCAAAGUGGCUGUGGCUAGAUUGCC | 0.03
21 | GACAUAGCUCUACACACCGUAGCAAAGGAGCUGUGGCUAGACUGCC | 0.02
22 | GGCAGAUCUCAACACCGCGUGGCAAAGUGGCUGUGACUAGACUGCA | 0.05
23 | GGCAGGGCCCAACACAGCGUGGCAAAGUGGCUGUGGCUAGAAUGCC | 0.01

Row | Variant | self-cleavage
24 | GGCAUAGCUCAACACAGCGUGGCAAAAUGGCUGUGGCUAGAAUGCC | 0.07
25 | GGCAGAGCUCAACACAACGUGGCAAAGUGGCUCUGGCUAGACUGCA | 0
26 | GGCAGAGCUAAACACGGUGUGGCAAAGGGGCUUUGGCUAGACUGCC | 0
27 | GGCAGAGCUCAAGACCGCGUGGCAAAGUGGGUGUGGCUAGACUGCC | 0
28 | UGCAGAGUUCAACACAGGGUGGCAAAGAGGCUGCGGCUAGACUGCC | 0.04
29 | GGCACAGGUCAACACAGCGUGUCAAAGUGGCUGUGGCUAUACAGCC | 0.11
30 | GGCAGAGCACCACACAGCGUGGUAAGGUGGCUGUGGCUAGACUGCC | 0.01
31 | GGCAGAGCUCAAGAGAGCGUGGCAAAGUCGCUGUGGCUAGACUGCC | 0.1
32 | GGCAGAGCUCAACACAGCGUUGCAAAGUGGCUGGGGUUAGACUGCC | 0.04
33 | GGCAGCGCUCAACACAGCGUUUCAAAGUGGCUGUGGCUAGACUACC | 0.25
34 | GGCAGAGCUCAACACAGCAUGGCACAAUGGCUGUGGCUUGACUGUC | 1.01
35 | CGCCGAGCUCAACACAGCGUGGCAAAGUGGCUGUAGCUAGACUGCC | 0.06
36 | GGCAGAGCUCAAUCCAUCGUGGCAAAGUGGCUGUGGCUAGACUGCC | 0.02
37 | GGCAGAGCUCAACACAGCGUUGCAAAGUGGCUGUACCGAGACUGCC | 0.03
38 | GGCAGCGCUCAACAGAGCGUGGCAAGGUGGCUGUGGUCAGACUGCC | 0.01
39 | GGCAGAGCUAAACACAGCGUGUCACAGUGGCUGUGGCUAGACUGCC | 0.06
40 | GGCAGAGCACAACACAGCGUGGCAAUGUGGCUGUUGCUAGACUGAC | 0.21
41 | GGCAGAGCUCAACACAUCGUGGCAAAGUGGCUGUGGCAAGAGGGCC | 0.01
42 | GGCAGAGCUCAACACGGCGUGGCCAAGUGCCUGUGGUUAGACUGCC | 0.01
43 | GGCCGACCUCAACACAGCGUGGCAAAGUAGCUGUGGCUAGACUGCC | 0.04
44 | GCCAGAGCUCCACACAGCGUGGCAAAGUUGCUGUGGCUAGACUGCC | 0.02
45 | GGCAUAGCUCAAGACAGCGUGGCAAAGUGCCUGUGGCUACAAUGCC | 0.08
46 | GGCAGAGCUCAACACCGAGUGGCAAAGUGGCUAUGGCUAGGCUGCC | 0.07

Row | Variant | self-cleavage
47 | GGCAGAGCUCAACACCGCGUGGCAUAGUGGCUCUGGUUAGACUGCC | 0.05
48 | GGCACAGCUCAACGCAGCGUCGCAAAGUGGCUGUGUCUAGACUCCC | 0.03
49 | GGCAGAGCUAAACACAGCGUGGCAAAGUGGUUGUGGCUACACUGCC | 0.03
50 | GGUAGAGCUCAACACAGCGUGGGAAAGUGGCUGUGGCUAGACUCCC | 0.35
51 | GUCAGGGCUCAACAGAGCGUGGCAAAGUGGCUGAGGCUAUACUGCC | 0.02
52 | GGCAGAGCUCAACACUGGGUGGCAUAGUGGCUGUGGCUAGACUGCC | 0.03
53 | GGCAGAGCACAACACAGCGUGGCAAAGAGGCUGUGGCGAGACUGCC | 0.03
54 | GGCAGAGGUCAACACAUCGUCGCGAAGUGGCUGUGCCUAGAGUGCC | 0.06
55 | GGCAGAGCACAACACAGCGUGGCAAAGCGGCUGUGCCUAGACGGCC | 0
56 | AGCAGAGUUCAACACAGCGUGGCAAAGUGGCUGUGAUUCGACUGCC | 0.6
57 | GGCAGAGCUCAUCACAGCGUGGCAAAGUGGCAGUGGGUAGACUGCC | 0
58 | GGCAGUGAUCAACACAGCUUGGCAAAGUGGAUGUGGCUAGACUGCC | 0.02
59 | GGCAGAUCUCAACACAUCGUGGCGAAGUGGGUGUGGCUAGACUGCC | 0.02
60 | GGCAGGGCUCAACACAGCGUGGCAUAGUGGCUGUGGCUAAACUGCC | 0.2
61 | GGCAGGGCUCAACACAGCGUGGGAAAGUGGCUGUGGCUAGACUGAC | 0.21
62 | GGCAGAGCUCAUCACAGCGUGGCAGAGUGGCAGUGGCUAGACUGCC | 0.02
63 | GACAGAGCUCAACACAGCGAGCCAAAGGGUCUGUGUUUAGACUGCC | 0.02
64 | GGCAGAGCUCAACACAGCGUGACAAAGUCGCUGUGGCGAGACUGCC | 0.02
65 | GGAAGAGCUCCACACCGCGUGGCAAAGUGGCUGUGGCGAGACUGCC | 0.03
66 | GGCAGAGCUCAAAACCGCGUGCCAAAGUGGCUGUGGCUAUACUGCU | 0.06
67 | GGCAAAGCUCAACACAGCGUGGCAAAGUGGCUGUGGCCAGACUCCC | 0.09
68 | GGCCGAGCUCGUCACAGCGUGGCAAAGUGGCUGUCGCUAGACUGCC | 0.01
69 | GGCAGACCUCGACACAGCGUGGCAAAUUGGCUGUGGCUAGUCUGCC | 0.01

Row | Variant | self-cleavage
70 | GGGAGUCCUCAACACAGAGUGGCAAAGUGGCUGUGGCUUGACUGGC | 0.01
71 | GUAAAAGCUCAACACAGCGUGGCAAAGUGGCUGUGGCAAGACUGCC | 0.16
72 | GGCAGAGCUGAAAAUAGCGUGGCAAAGUGGCUGUGGCUAGACUGCC | 0.03
73 | GGCAGAGCUCAACACAGCGUGGGAAAUCGGCUGUGGCUAGACUGCC | 0.38
74 | GGAAGAGAUCAACACAGCGUGGCACAGUGGCUGUGGCUAGACUGCC | 0.36
75 | GGCAGAGCUUAACACAGCGUGGCAUAGUGGUUGUGGCUAGACUGCC | 0.48
76 | UGCAAAGCUCAGCACAGCGUGGCACAGUGGCUGUGGCUAGACUCCC | 0.14
77 | GGCAGAGCUCAACACAGCGUGGCAAAGUGGAUUAGGCUAGACUGCC | 0.05
78 | GGCAGAGCUCAACACCGCGUGGCAUACUGGCUGUGGCUAGACUGCC | 0.06
79 | GGCGGAGCUACACACAGCGUGGCAACGUGGAUGUGGCUAGACUGCC | 0.02
80 | GGCAGAACUCAACACAGGGUGGCAACGUGGCUGUGGCUAGACUGCC | 0.09
81 | GCCAGAGCUCAACACAGCAAGGCAAAGUGGCUGUGGUUAGACUGCC | 0.83
82 | GGCAGAGCGAAACACAGAGUGUCAAAGGGGCUGAGGCUAGACUGCC | 0.02
83 | GGCAGAGCUAAACACACCGUUGCAAAGUGGCUGUGGCCAGAUUGCC | 0.03
84 | GGAAGAUCUCAACACAGCGUGGCAAAGUGGCUGUGGCUAGGCUGCC | 0.2
85 | GGCAGAGAUCAGCACAGCGUGGCAAAUUGGCUGUGGCUAGACUGCC | 0.03
86 | GGCAGACCUCAAUACAGCGUGGCAAAGUGACUGUGGCUAUACUGCC | 0.25
87 | GGUAGAGCUCUACACAGCGUGGCAAAGUGGCUGUGGAUAGCCUGCC | 0
88 | GGAUGGGCUCAACACAUCGUGGCAAAGUGGCUCUGGGAAGACUGCG | 0.03
89 | GGCAGAUCUCAACACAGCGUGGCAUAGUGGCUGUGGCUAGAUUGCC | 0.11
90 | UGCAGAGCUCAACACGACGUGGCGAAGAGGCUGUGGCUAGACUGCC | 0
91 | GGCAGAGCUCACCAGAGCUUGGCAAAGUGGCUGUGGCUAGACUGCC | 0.01
92 | AGCAGAGCUCAACACAACGUGGCAUAGUGGCUGUGGCUAGACUGCC | 0.12

Row | Variant | self-cleavage
93 | GGCAGAUCUCAACACAGCGUGGCACCGUGGCUGUGGCUAGAGUGCC | 0.05
94 | GGCAGAGCUCAAAAGACCGUGGCAAAGUGGCUGUGGCGAGACUGCC | 0.02
95 | GGCAGAGCUUAACACAGUGUGGCAAAGUGACUGUGGCUAGACUGCC | 1.09
96 | GGCAGAGAUCAAAACAGCGUGGCAAAGUUGCUGUGGCUAUACUGCC | 0.06
97 | UGCAGAGUACCACUCAGCGUGGCAAAGUCGUUGUGGCUAGACUGCC | 0
98 | CGGAGAGCUCAACACAGCCUGACAACGAGGCUGUGGCUAGACUUCC | 0.22
99 | GGCAGAGCUCAACACAGUGUGCCAAAGUGGCUGUUCCUAGACUGCC | 0.04
100 | GGCAGAGCUCACCACAGCGUGGCAAAGCAGCGGUGGCUAAACUGCC | 0
101 | GGCAGAGCUCAACACAGCAUGGCAUAGUGGCUGUGGCUAGUCUGCC | 0.48
102 | GGCGGAGCUGAACACAGUGUGGCAAAGUGGCUGUGGCUAGACUGCA | 0.05
103 | GGCAGAGCUCAACACAGCGGGGCAAAGUGGCUGUGGCUAGACUUCG | 0.04
104 | GGCAGAGCUAAAGACAGCGUGGCAAAGUGGCUGUGGUUAUACUGCC | 0.02
105 | GGCAGAGCUCAACACCGCGUGGCAAAGUGGCUGGUGCUAGACUGCC | 0.04
106 | GGCAGAUCUCAACACAGCGUGGGAAAGUGGCUAUGGCUAGACUGCC | 0.05
107 | GGCAGAGUUCAACACAGAGUGGCAAAGUGGCUGUGUCUAGACUACU | 0.16
108 | GGCAGAGCUCAACACAGCGUGGCACAGUGGCUGUGUCUUGACUGCC | 0.31
109 | GGCAGAGCUCAACACAGCGUGGCAAAGGGGCUGUGGCUAGUCUGAC | 0.22
110 | GGCAGAGUUCGACACAGUGUAGCAAAGUGGCUGUGGCUAGACUGCC | 0.02
111 | UGCAGAGCUCAACACAGCGUGGCAAUGUGGCUGUGGCUAGACUGUC | 1.28
112 | GGCAGAGCUCAACACUGCGUGGUAAAGUGGCUGUGGCUAUACUGCC | 0.02
